Results reported in the supplement of paper PMC8728848.
This is one part of the list.

What was measured:
Assay in all cases: glycan array binding signal (z-score within array); higher = stronger binding
Conditions in all cases: glycan notation: IUPAC condensed, linker removed
[1] = target: Fuc(a1-3)[Gal(b1-4)]GlcNAc
Outline: (§1)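 Columns mapping to the same glycan were averaged after glycan names were converted to IUPAC-condensed notation. The data come from 3228 arrays in the Consortium for Functional Glycomics database, limited to those with an available protein sequence. Binding is reported as a within-array Z-score averaged across arrays of one protein sequence and across linkers.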

[2] = target: Fuc(a1-3)[Gal(b1-4)]GlcNAc(b1-3)Gal(b1-3)[Fuc(a1-4)]GlcNAc
Outline: as §1

[3] = target: Fuc(a1-3)[Gal(b1-4)]GlcNAc(b1-3)Gal(b1-4)[Fuc(a1-3)]GlcNAc
Outline: as §1

[4] = target: Fuc(a1-3)[Gal(b1-4)]GlcNAc(b1-3)Gal(b1-4)[Fuc(a1-3)]GlcNAc(b1-3)Gal(b1-4)[Fuc(a1-3)]GlcNAc
Outline: as §1

[5] = target: Fuc(a1-3)[Gal(b1-4)]GlcNAc(b1-4)Gal(b1-4)[Fuc(a1-3)]GlcNAc
Outline: as §1

[6] = target: Fuc(a1-3)[Gal(b1-4)]GlcNAc(b1-4)Gal(b1-4)[Fuc(a1-3)]GlcNAc(b1-4)Gal(b1-4)[Fuc(a1-3)]GlcNAc
Outline: as §1

[7] = target: Fuc(a1-3)[Gal(b1-4)]GlcNAc6S
Outline: as §1

[8] = target: Fuc(a1-3)[Gal3S(b1-4)]Glc
Outline: as §1

[9] = target: Fuc(a1-3)[Gal3S(b1-4)]Glc6S
Outline: as §1

[10] = target: Fuc(a1-3)[Gal3S(b1-4)]GlcNAc
Outline: as §1

[11] = target: Fuc(a1-3)[Gal3S(b1-4)]GlcNAc6S
Outline: as §1

[12] = target: Fuc(a1-3)[GalNAc(b1-4)]Gal(b1-4)GlcNAc
Outline: as §1

Fuc(a1-4)GlcNAc = target: Fuc(a1-4)GlcNAc
Outline: as §1

Fuc(b1-3)GlcNAc = target: Fuc(b1-3)GlcNAc
Outline: as §1

Gal(a1-2)Gal = target: Gal(a1-2)Gal
Outline: as §1

Gal(a1-3)Gal = target: Gal(a1-3)Gal
Outline: as §1

Gal(a1-3)Gal(b1-3)Glc = target: Gal(a1-3)Gal(b1-3)Glc
Outline: as §1

Gal(a1-3)Gal(b1-3)GlcNAc = target: Gal(a1-3)Gal(b1-3)GlcNAc
Outline: as §1

Gal(a1-3)Gal(b1-4)Glc = target: Gal(a1-3)Gal(b1-4)Glc
Outline: as §1

Gal(a1-3)Gal(b1-4)GlcNAc = target: Gal(a1-3)Gal(b1-4)GlcNAc
Outline: as §1

[13] = target: Gal(a1-3)Gal(b1-4)[Fuc(a1-3)]GalNAc
Outline: as §1

[14] = target: Gal(a1-3)Gal(b1-4)[Fuc(a1-3)]GlcNAc
Outline: as §1

Gal(a1-3)GalNAc = target: Gal(a1-3)GalNAc
Outline: as §1

Gal(a1-3)GlcNAc = target: Gal(a1-3)GlcNAc
Outline: as §1

[15] = target: Gal(a1-3)[Gal(a1-4)]Gal(b1-4)GlcNAc
Outline: as §1

Gal(a1-4)Gal(b1-4)Gal = target: Gal(a1-4)Gal(b1-4)Gal
Outline: as §1

Gal(a1-4)Gal(b1-4)GalNAc = target: Gal(a1-4)Gal(b1-4)GalNAc
Outline: as §1

Gal(a1-4)Gal(b1-4)Glc = target: Gal(a1-4)Gal(b1-4)Glc
Outline: as §1

Gal(a1-4)Gal(b1-4)GlcNAc = target: Gal(a1-4)Gal(b1-4)GlcNAc
Outline: as §1

Gal(a1-4)GlcNAc = target: Gal(a1-4)GlcNAc
Outline: as §1

Gal(a1-6)Glc = target: Gal(a1-6)Glc
Outline: as §1

Gal(b1-2)Gal = target: Gal(b1-2)Gal
Outline: as §1

Gal(b1-3)Gal = target: Gal(b1-3)Gal
Outline: as §1

Gal(b1-3)GalNAc = target: Gal(b1-3)GalNAc
Outline: as §1

[16] = target: Gal(b1-3)GalNAc(b1-3)Gal(a1-4)Gal(b1-4)Glc
Outline: as §1

[17] = target: Gal(b1-3)GalNAc(b1-3)Gal(b1-4)Glc
Outline: as §1

[18] = target: Gal(b1-3)GalNAc(b1-3)Gal(b1-4)GlcNAc
Outline: as §1

[19] = target: Gal(b1-3)GalNAc(b1-4)Gal(b1-4)Glc
Outline: as §1

B1: FBG3 (Homo sapiens), Q9H4M3 (protein)
chain: MAVGNINELPENILLELFTHVPARQLLLNCRLVCSLWRDLIDLVTLWKRKCLREGFITEDWDQPVADWKIFYFLRSLHRNLLHNPCAEEGFEFWSLDVNGGDEWKVEDLSRDQRKEFPNDQVKKYFVTSYYTCLKSQVVDLKAEGYWEELMDTTRPDIEVKDWFAARPDCGSKYQLCVQLLSSAHAPLGTFQPDPATIQQKSDAKWREVSHTFSNYPPGVRYIWFQHGGVDTHYWAGWYGPRVTNSSITIGPPLP
[1]
  glycan array binding signal (z-score): -0.406
[2]
  glycan array binding signal (z-score): -0.329
[3]
  glycan array binding signal (z-score): 0.175
[4]
  glycan array binding signal (z-score): -0.396
[5]
  glycan array binding signal (z-score): 1.09
[6]
  glycan array binding signal (z-score): -0.209
[7]
  glycan array binding signal (z-score): 0.085
[8]
  glycan array binding signal (z-score): -0.005
[9]
  glycan array binding signal (z-score): 0.422
[10]
  glycan array binding signal (z-score): -0.396
[11]
  glycan array binding signal (z-score): 1.94
[12]
  glycan array binding signal (z-score): -0.359
Fuc(a1-4)GlcNAc
  glycan array binding signal (z-score): -0.244
Fuc(b1-3)GlcNAc
  glycan array binding signal (z-score): 0.619
Gal(a1-2)Gal
  glycan array binding signal (z-score): -0.197
Gal(a1-3)Gal
  glycan array binding signal (z-score): -0.229
Gal(a1-3)Gal(b1-3)Glc
  glycan array binding signal (z-score): 0.264
Gal(a1-3)Gal(b1-3)GlcNAc
  glycan array binding signal (z-score): -0.548
Gal(a1-3)Gal(b1-4)Glc
  glycan array binding signal (z-score): -0.57
Gal(a1-3)Gal(b1-4)GlcNAc
  glycan array binding signal (z-score): -0.291
[13]
  glycan array binding signal (z-score): 0.081
[14]
  glycan array binding signal (z-score): -0.174
Gal(a1-3)GalNAc
  glycan array binding signal (z-score): -0.355
Gal(a1-3)GlcNAc
  glycan array binding signal (z-score): -0.198
[15]
  glycan array binding signal (z-score): -0.433
Gal(a1-4)Gal(b1-4)Gal
  glycan array binding signal (z-score): -0.387
Gal(a1-4)Gal(b1-4)GalNAc
  glycan array binding signal (z-score): -0.248
Gal(a1-4)Gal(b1-4)Glc
  glycan array binding signal (z-score): -0.153
Gal(a1-4)Gal(b1-4)GlcNAc
  glycan array binding signal (z-score): -0.338
Gal(a1-4)GlcNAc
  glycan array binding signal (z-score): -0.024
Gal(a1-6)Glc
  glycan array binding signal (z-score): 1.32
Gal(b1-2)Gal
  glycan array binding signal (z-score): 0.09
Gal(b1-3)Gal
  glycan array binding signal (z-score): -0.052
Gal(b1-3)GalNAc
  glycan array binding signal (z-score): 0.136
[16]
  glycan array binding signal (z-score): -0.529
[17]
  glycan array binding signal (z-score): -0.288
[18]
  glycan array binding signal (z-score): -0.569
[19]
  glycan array binding signal (z-score): -0.351
